Source: patent US20230083417A1, “THERAPEUTIC COMBINATION FOR THE TREATMENT OF BRAIN ISCHEMIA AND SAID THERAPEUTIC COMBINATION FOR USE IN THE TREATMENT OF BRAIN ISCHEMIA” (Universiteit Maastricht, priority 2020, published 2023)

System: rat hippocampal brain slices
Assay: Rat hippocampal brain slices, OGD and re-oxygenation, cell viability by MTT
Type: cell-based
Settings: 15 min OGD, 2 h re-oxygenation, GKT136901 0.1 μM, L-NAME 0.3 μM, BAY60-2770 0.01 μM, separately or combined at identical concentrations, vs untreated OGD
From the text: Rat Hippocampal Brain Slice Experiments. —2-3 months old adult male Sprague-Dawley rats were used. For hippocampal slices preparation and induction of oxygen deprivation and glucose deprivation (OGD), animals were decapitated and the brains were removed and transferred into ice-cold Krebs bicarbonate dissection buffer containing glucose and sucrose. Thereafter, hippocampi were dissected and sectioned in transverse slices of 250 μm. To stabilize tissue after slicing, slices were transferred to sucrose-free dissection buffer during 45 minutes at 34° C. Then, control group slices were incubated 15 minutes in a Krebs solution. Slices subjected to OGD were incubated in a Krebs buffer pre-bubbled with 95% N2/5% CO2, where 2-deoxyglucose replaced glucose. OGD period was followed by 2 h of re-oxygenation at 37° C. where slices were returned back to an oxygenated Krebs solution containing glucose^8. […] Cellular viability was quantified by their ability to reduce MTT. […] The formazan produced was solubilized by adding 200 μl dimethyl sulfoxide, giving a colored compound whose optical density was measured in an ELISA microplate reader at 540 nm^9. […]

Row | Compound | cell viability (MTT reduction) (listed as BAY) | cell viability (MTT reduction)
1 | O=C(O)CCCCN(CCc1cc(F)ccc1OCc1ccc(-c2ccc(C(F)(F)F)cc2)cc1)Cc1ccc(C(=O)O)cc1 [BAY60-2770] | did restore cell viability to a limited degree if at all | 
2 | COC(=O)[C@@H](N)CCCNC(=N)N[N+](=O)[O-] [L-NAME, N omega-Nitro-L-arginine methyl ester] |  | did restore cell viability to a limited degree if at all
